± gives the standard deviation of the averaged measurements. Growth of baker's yeast expressing single-residue variants of Pneumocystis jirovecii dihydrofolate reductase in 8.8 or 44 µM methotrexate (about 75% and 90% inhibition of the wild type). Selection coefficient per generation; 0 = like wild type, above 0 = less sensitive, below 0 = more sensitive or loss of function. No active / inactive call per row; the paper calls resistant above 0.220 (8.8 µM) or 0.243 (44 µM) together with a significance test. At 44 µM about 15% of codons end with one read or none, so the lowest values are floors (replicate rank correlation 0.74; 0.94 at 8.8 µM).
B1: UniProt A0EPZ9; numbered along this chain (parent)
chain: MDWQKSLTLIVALTLSRGIGLKNDLPWKLKSDMMFFSRVTSGLLVTRSTGQMNVVLMGRKTWESLPAHSRPLKNRINVVISRQEVLDLGGGAYHARSLDDALALLSQIYDSTSKIQLNRVFVIGGGELCKAAMEHSRLNRIIATVIHNEVDCDVFFPIDFRSSQSCLPWRKQDHSVLEAWVGSKVPQGKINENGFIYEFEMWIRDI

Variants of: B1
Assay: selection coefficient against synonymous wild-type codons (log2 per generation); higher = faster growth than wild type
Details: with Saccharomyces cerevisiae carrying the variant on a plasmid
Experimental: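 Pooled growth of yeast carrying single-residue variants of P. jirovecii dihydrofolate reductase (own DFR1 gene intact), two passages at 30 °C, three cultures, sequenced before and after. Codons with under 15 starting reads are left out; codons of one change are averaged.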

| Variant | selection coefficient against synonymous wild-type codons (log2) (methotrexate 8.8 µM) | selection coefficient against synonymous wild-type codons (log2) (methotrexate 44 µM) |
| --- | --- | --- |
| I115V | 0.0236 ± 0.047 | 0.145 ± 0.1 |
| I115W | -0.231 ± 0.037 | -0.166 ± 0.12 |
| I115M | -0.0703 ± 0.029 | -0.0196 ± 0.036 |
| I115F | -0.0738 ± 0.03 | 0.18 ± 0.24 |
| I115T | -0.031 ± 0.051 | -0.132 ± 0.061 |
| I115R | -0.169 ± 0.075 | -0.146 ± 0.16 |
| I115G | -0.0143 ± 0.072 | -0.0544 ± 0.099 |
| I115S | -0.178 ± 0.092 | 0.0406 ± 0.016 |
| I115A | -0.0642 ± 0.031 | -0.0809 ± 0.099 |
| I115E | 0.00623 ± 0.013 | -0.0265 ± 0.031 |
| I115K | -0.0124 ± 0.028 | -0.0655 ± 0.066 |
| I115L | -0.125 ± 0.19 | -0.0697 ± 0.19 |
| G125M | -0.82 ± 0.16 | -0.383 ± 0.029 |
| G125E | -0.678 ± 0.068 | -0.0759 ± 0.51 |
| G125I | -0.814 ± 0.091 | -0.284 ± 0.094 |
| G125H | -0.552 ± 0.08 | -0.12 ± 0.059 |
| G125N | -0.613 ± 0.049 | -0.111 ± 0.051 |
| G125Q | -0.766 ± 0.091 | -0.443 ± 0.14 |
| G125R | -0.767 ± 0.14 | -0.357 ± 0.076 |
| G125C | -0.48 ± 0.37 | -0.164 ± 0.23 |
| G125K | -0.807 ± 0.048 | -0.389 ± 0.031 |
| G125S | -0.0583 ± 0.041 | 0.433 ± 0.13 |
| G125L | -0.836 ± 0.11 | -0.426 ± 0.071 |

| Variant | selection coefficient against synonymous wild-type codons (log2) (methotrexate 8.8 µM) | selection coefficient against synonymous wild-type codons (log2) (methotrexate 44 µM) |
| --- | --- | --- |
| G125P | -0.714 ± 0.067 | -0.211 ± 0.0088 |
| G125D | -0.657 ± 0.046 | -0.453 ± 0.025 |
| G125A | -0.444 ± 0.094 | 0.0575 ± 0.11 |
| G125F | -0.895 ± 0.031 | -0.389 ± 0.043 |
| Q116M | -0.198 ± 0.059 | -0.256 ± 0.11 |
| Q116T | -0.0697 ± 0.055 | -0.0486 ± 0.12 |
| Q116P | -0.0864 ± 0.048 | -0.0843 ± 0.11 |
| Q116N | -0.014 ± 0.097 | 0.0319 ± 0.13 |
| Q116V | -0.211 ± 0.05 | -0.241 ± 0.09 |
| Q116I | -0.264 ± 0.1 | -0.0333 ± 0.083 |
| Q116C | -0.149 ± 0.076 | -0.0554 ± 0.12 |
| Q116H | -0.0577 ± 0.063 | 0.0183 ± 0.083 |
| Q116R | -0.13 ± 0.034 | -0.134 ± 0.064 |
| Q116E | -0.0459 ± 0.044 | -0.014 ± 0.024 |
| Q116G | -0.169 ± 0.036 | -0.166 ± 0.11 |
| Q116A | -0.121 ± 0.053 | 0.0566 ± 0.19 |
| Q116S | -0.0638 ± 0.052 | -0.0706 ± 0.11 |
| Q116L | -0.268 ± 0.057 | -0.205 ± 0.15 |
| Q116W | -0.431 ± 0.098 | -0.33 ± 0.15 |
| Q116K | -0.00903 ± 0.027 | 0.0718 ± 0.016 |
| N118H | -0.145 ± 0.21 | -0.142 ± 0.052 |
| N118R | -0.25 ± 0.043 | -0.219 ± 0.082 |
| N118D | 0.0563 ± 0.044 | 0.0675 ± 0.023 |

| Variant | selection coefficient against synonymous wild-type codons (log2) (methotrexate 8.8 µM) | selection coefficient against synonymous wild-type codons (log2) (methotrexate 44 µM) |
| --- | --- | --- |
| N118P | 0.177 ± 0.042 | 0.256 ± 0.045 |
| N118E | -0.0648 ± 0.033 | -0.0995 ± 0.19 |
| N118M | 0.0884 ± 0.014 | 0.162 ± 0.043 |
| N118F | -0.127 ± 0.029 | -0.131 ± 0.067 |
| N118A | -0.113 ± 0.035 | -0.101 ± 0.1 |
| N118W | -0.142 ± 0.034 | -0.153 ± 0.079 |
| N118Y | -0.19 ± 0.12 | -0.127 ± 0.087 |
| N118K | -0.155 ± 0.046 | -0.192 ± 0.21 |
| N118I | -0.185 ± 0.079 | -0.146 ± 0.18 |
| N118C | -0.0546 ± 0.061 | 0.0302 ± 0.11 |
| N118T | -0.0946 ± 0.046 | -0.0582 ± 0.15 |
| N118G | 0.269 ± 0.03 | 0.378 ± 0.043 |
| N118L | -0.125 ± 0.044 | -0.145 ± 0.14 |
| N118S | -0.0621 ± 0.024 | -0.00773 ± 0.27 |
| N118V | -0.153 ± 0.037 | -0.234 ± 0.16 |
| N118Q | -0.137 ± 0.049 | -0.0636 ± 0.026 |
| F121P | -0.59 ± 0.13 | -0.21 ± 0.05 |
| F121H | -0.347 ± 0.086 | -0.177 ± 0.048 |
| F121Q | -0.49 ± 0.068 | -0.289 ± 0.056 |
| F121S | -0.383 ± 0.067 | -0.251 ± 0.14 |
| F121T | -0.28 ± 0.046 | -0.201 ± 0.066 |
| F121N | -0.581 ± 0.083 | -0.0791 ± 0.041 |
| F121K | -0.567 ± 0.24 | -0.322 ± 0.052 |

| Variant | selection coefficient against synonymous wild-type codons (log2) (methotrexate 8.8 µM) | selection coefficient against synonymous wild-type codons (log2) (methotrexate 44 µM) |
| --- | --- | --- |
| F121Y | -0.06 ± 0.012 | 0.0515 ± 0.13 |
| F121I | -0.219 ± 0.07 | -0.147 ± 0.049 |
| F121D | -0.814 ± 0.035 | -0.309 ± 0.041 |
| F121R | -0.682 ± 0.071 | -0.202 ± 0.059 |
| F121A | -0.177 ± 0.028 | -0.13 ± 0.086 |
| F121C | -0.0278 ± 0.038 | -0.0722 ± 0.071 |
| F121M | -0.116 ± 0.02 | -0.121 ± 0.11 |
| F121W | -0.23 ± 0.057 | -0.361 ± 0.1 |
| F121V | -0.0487 ± 0.019 | -0.0641 ± 0.099 |
| F121G | -0.629 ± 0.097 | -0.251 ± 0.044 |
| F121E | -0.719 ± 0.18 | -0.369 ± 0.06 |
| F121L | -0.0558 ± 0.025 | -0.0648 ± 0.13 |
| I123K | -0.839 ± 0.089 | -0.377 ± 0.058 |
| I123E | -0.494 ± 0.14 | -0.242 ± 0.075 |
| I123N | -0.47 ± 0.11 | -0.107 ± 0.042 |
| I123A | 0.144 ± 0.027 | 0.267 ± 0.081 |
| I123C | 0.294 ± 0.0085 | 0.493 ± 0.065 |
| I123W | -0.603 ± 0.029 | -0.323 ± 0.032 |
| I123M | -0.0338 ± 0.028 | 0.36 ± 0.031 |
| I123D | -0.853 ± 0.033 | -0.348 ± 0.045 |
| I123L | 0.77 ± 0.026 | 1.22 ± 0.069 |
| I123T | 0.224 ± 0.031 | 0.441 ± 0.066 |
| I123R | -0.705 ± 0.096 | -0.239 ± 0.076 |

| Variant | selection coefficient against synonymous wild-type codons (log2) (methotrexate 8.8 µM) | selection coefficient against synonymous wild-type codons (log2) (methotrexate 44 µM) |
| --- | --- | --- |
| I123G | -0.195 ± 0.03 | -0.0354 ± 0.24 |
| I123Q | 0.0178 ± 0.022 | 0.306 ± 0.051 |
| I123V | 0.0179 ± 0.043 | 0.0905 ± 0.1 |
| I123P | -0.554 ± 0.17 | -0.122 ± 0.12 |
| I123Y | -0.559 ± 0.036 | -0.331 ± 0.057 |
| I123H | -0.668 ± 0.081 | -0.235 ± 0.036 |
| I123S | 0.0222 ± 0.021 | 0.201 ± 0.12 |
| I123F | -0.0828 ± 0.0081 | 0.205 ± 0.075 |
| T112R | -0.1 ± 0.067 | -0.0609 ± 0.18 |
| T112S | -0.00107 ± 0.06 | 0.0468 ± 0.067 |
| T112P | -0.16 ± 0.033 | -0.127 ± 0.14 |
| T112Q | 0.0074 ± 0.045 | 0.0473 ± 0.065 |
| T112W | -0.394 ± 0.12 | -0.383 ± 0.039 |
| T112Y | -0.335 ± 0.037 | -0.0736 ± 0.096 |
| T112V | -0.27 ± 0.047 | -0.192 ± 0.25 |
| T112N | 0.127 ± 0.041 | 0.00214 ± 0.043 |
| V120P | -0.697 ± 0.027 | -0.193 ± 0.057 |
| V120Y | -0.5 ± 0.12 | -0.255 ± 0.04 |
| V120N | -0.695 ± 0.045 | -0.192 ± 0.031 |
| V120R | -0.697 ± 0.1 | -0.254 ± 0.05 |
| V120D | -0.259 ± 0.056 | -0.0631 ± 0.098 |
| V120I | 0.0319 ± 0.041 | 0.13 ± 0.026 |
| V120W | -0.677 ± 0.039 | -0.329 ± 0.14 |

Reference: the supplement of paper PMC11125491
